# The other results are listed elsewhere or left out.
# Legend:
# Experiment in all cases: glycan array binding signal (z-score within array); higher = stronger binding
# Details in all cases: glycan notation: IUPAC condensed, linker removed
# Fuc(a1-2)Gal = target: Fuc(a1-2)Gal
# Outline: (§1)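 Negative Z-scores can be read as non-binding. The Z-score is calculated within each array and then averaged across arrays of one protein sequence at different concentrations or buffers and across linkers. Arrays, 3228 in all, were curated from the Consortium for Functional Glycomics database and kept only where the protein sequence was available.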
# Fuc(a1-2)Gal(b1-3)GalNAc = target: Fuc(a1-2)Gal(b1-3)GalNAc
# Outline: as §1
# [1] = target: Fuc(a1-2)Gal(b1-3)GalNAc(a1-3)[Fuc(a1-2)]Gal(b1-4)Glc
# Outline: as §1
# [2] = target: Fuc(a1-2)Gal(b1-3)GalNAc(a1-3)[Fuc(a1-2)]Gal(b1-4)GlcNAc
# Outline: as §1
# [3] = target: Fuc(a1-2)Gal(b1-3)GalNAc(b1-3)Gal
# Outline: as §1
# [4] = target: Fuc(a1-2)Gal(b1-3)GalNAc(b1-3)Gal(a1-4)Gal(b1-4)Glc
# Outline: as §1
# [5] = target: Fuc(a1-2)Gal(b1-3)GalNAc(b1-4)[Neu5Ac(a2-3)]Gal(b1-4)Glc
# Outline: as §1
# Fuc(a1-2)Gal(b1-3)GlcNAc = target: Fuc(a1-2)Gal(b1-3)GlcNAc
# Outline: as §1
# [6] = target: Fuc(a1-2)Gal(b1-3)GlcNAc(b1-2)Man(a1-3)[Fuc(a1-2)Gal(b1-3)GlcNAc(b1-2)Man(a1-6)]Man(b1-4)GlcNAc(b1-4)GlcNAc
# Outline: as §1
# [7] = target: Fuc(a1-2)Gal(b1-3)GlcNAc(b1-2)Man(a1-3)[Fuc(a1-2)Gal(b1-3)GlcNAc(b1-2)Man(a1-6)]Man(b1-4)GlcNAc(b1-4)[Fuc(a1-6)]GlcNAc
# Outline: as §1
# [8] = target: Fuc(a1-2)Gal(b1-3)GlcNAc(b1-3)Gal(b1-4)Glc
# Outline: as §1
# [9] = target: Fuc(a1-2)Gal(b1-3)GlcNAc(b1-3)GalNAc
# Outline: as §1
# [10] = target: Fuc(a1-2)Gal(b1-3)GlcNAc(b1-3)[Fuc(a1-2)Gal(b1-3)GlcNAc(b1-6)]GalNAc
# Outline: as §1
# [11] = target: Fuc(a1-2)Gal(b1-3)GlcNAc(b1-3)[Gal(b1-4)GlcNAc(b1-6)]Gal(b1-4)Glc
# Outline: as §1
# [12] = target: Fuc(a1-2)Gal(b1-3)GlcNAc(b1-3)[Neu5Ac(a2-6)Gal(b1-4)GlcNAc(b1-6)]Gal(b1-4)Glc
# Outline: as §1
# [13] = target: Fuc(a1-2)Gal(b1-3)GlcNAc6S
# Outline: as §1
# [14] = target: Fuc(a1-2)Gal(b1-3)[Fuc(a1-4)]GlcNAc
# Outline: as §1
# [15] = target: Fuc(a1-2)Gal(b1-3)[Fuc(a1-4)]GlcNAc(b1-2)Man(a1-3)[Fuc(a1-2)Gal(b1-3)[Fuc(a1-4)]GlcNAc(b1-2)Man(a1-3)]Man(b1-4)GlcNAc(b1-4)GlcNAc
# Outline: as §1
# [16] = target: Fuc(a1-2)Gal(b1-3)[Fuc(a1-4)]GlcNAc(b1-2)Man(a1-3)[Fuc(a1-2)Gal(b1-3)[Fuc(a1-4)]GlcNAc(b1-2)Man(a1-6)]Man(b1-4)GlcNAc(b1-4)[Fuc(a1-6)]GlcNAc(b1-4)[Fuc(a1-6)]GlcNAc
# Outline: as §1
# [17] = target: Fuc(a1-2)Gal(b1-3)[Fuc(a1-4)]GlcNAc(b1-3)[Fuc(a1-3)[Gal(b1-4)]GlcNAc(b1-6)]Gal(b1-4)Glc
# Outline: as §1
# [18] = target: Fuc(a1-2)Gal(b1-3)[Fuc(a1-4)]GlcNAc(b1-3)[Gal(b1-4)GlcNAc(b1-6)]Gal(b1-4)Glc
# Outline: as §1
# Fuc(a1-2)Gal(b1-4)Glc = target: Fuc(a1-2)Gal(b1-4)Glc
# Outline: as §1
# Fuc(a1-2)Gal(b1-4)Glc6S = target: Fuc(a1-2)Gal(b1-4)Glc6S
# Outline: as §1
# Fuc(a1-2)Gal(b1-4)GlcNAc = target: Fuc(a1-2)Gal(b1-4)GlcNAc
# Outline: as §1
# [19] = target: Fuc(a1-2)Gal(b1-4)GlcNAc(b1-2)Man
# Outline: as §1
# [20] = target: Fuc(a1-2)Gal(b1-4)GlcNAc(b1-2)Man(a1-3)[Fuc(a1-2)Gal(b1-4)GlcNAc(b1-2)Man(a1-6)]Man(b1-4)GlcNAc(b1-4)GlcNAc
# Outline: as §1
# [21] = target: Fuc(a1-2)Gal(b1-4)GlcNAc(b1-2)Man(a1-3)[Fuc(a1-2)Gal(b1-4)GlcNAc(b1-2)Man(a1-6)]Man(b1-4)GlcNAc(b1-4)[Fuc(a1-6)]GlcNAc
# Outline: as §1
# [22] = target: Fuc(a1-2)Gal(b1-4)GlcNAc(b1-2)[Fuc(a1-2)Gal(b1-4)GlcNAc(b1-4)]Man(a1-3)[Fuc(a1-2)Gal(b1-4)GlcNAc(b1-2)Man(a1-6)]Man(b1-4)GlcNAc(b1-4)GlcNAc
# Outline: as §1
# [23] = target: Fuc(a1-2)Gal(b1-4)GlcNAc(b1-3)Gal(b1-4)GlcNAc
# Outline: as §1
# [24] = target: Fuc(a1-2)Gal(b1-4)GlcNAc(b1-3)Gal(b1-4)GlcNAc(b1-2)Man(a1-3)[Fuc(a1-2)Gal(b1-4)GlcNAc(b1-3)Gal(b1-4)GlcNAc(b1-2)Man(a1-6)]Man(b1-4)GlcNAc(b1-4)GlcNAc
# Outline: as §1
binder,measurement,setting,value
PX14379A-bvu-539-28-539 (Bacteroides vulgatus) (protein) EPYSEIIEEDYVPTEADEIALLATTYSQLRFVMDWYGLFDLQEESGDVIVTPTRPNGWDDGGTYKQMHKHTWDNQQGQPQSIWDYCYKGIANANKILKRADEGFFTEESKPKVVAEVKGVRALWYSILCDTHGNIPIQTSFSEEVPVQSTRKQVFDFIINELKEVMPNLPTEVNKSTYGRLTQWGAKCLMARMYLNAGVYTGTPMWNECLEQCNDIINSGLFSLETNYTDIFKTENSGCVETIFAIPYDEVYNEGDNNGPVFGAHMKFLSSNSRKVFNMQTTPWGGSAANPQFINSYDPDDMRLKYTWLQGDQYSPDGVLITTFPNKLPSIYKTDTDDGYRVGKYEIKVGAKSLLSNDFPYFRYTEVLLMKAECLLRLGQNETEAAHIVSQIRERAFRESAHPEKATVDAAWLKGDTHINYGTLDEKGQIDDAGNTEVVELGGLYDEWGWEFAAEARRRTDMIRFGTYQKKSWFNHTPTANDLNGNSILFPIHLDHLNTNPNLQQNPGYAGK,glycan array binding signal (z-score),Fuc(a1-2)Gal,-0.067
same,glycan array binding signal (z-score),Fuc(a1-2)Gal(b1-3)GalNAc,-0.448
same,glycan array binding signal (z-score),[1],-0.428
same,glycan array binding signal (z-score),[2],-0.426
same,glycan array binding signal (z-score),[3],-0.259
same,glycan array binding signal (z-score),[4],-0.301
same,glycan array binding signal (z-score),[5],-0.399
same,glycan array binding signal (z-score),Fuc(a1-2)Gal(b1-3)GlcNAc,-0.263
same,glycan array binding signal (z-score),[6],8.31
same,glycan array binding signal (z-score),[7],-0.157
same,glycan array binding signal (z-score),[8],-0.301
same,glycan array binding signal (z-score),[9],-0.144
same,glycan array binding signal (z-score),[10],0.182
same,glycan array binding signal (z-score),[11],-0.169
same,glycan array binding signal (z-score),[12],-0.4
same,glycan array binding signal (z-score),[13],-0.245
same,glycan array binding signal (z-score),[14],-0.196
same,glycan array binding signal (z-score),[15],-0.151
same,glycan array binding signal (z-score),[16],-0.22
same,glycan array binding signal (z-score),[17],-0.183
same,glycan array binding signal (z-score),[18],-0.283
same,glycan array binding signal (z-score),Fuc(a1-2)Gal(b1-4)Glc,-0.378
same,glycan array binding signal (z-score),Fuc(a1-2)Gal(b1-4)Glc6S,-0.232
same,glycan array binding signal (z-score),Fuc(a1-2)Gal(b1-4)GlcNAc,-0.416
same,glycan array binding signal (z-score),[19],-0.106
same,glycan array binding signal (z-score),[20],0.892
same,glycan array binding signal (z-score),[21],0.338
same,glycan array binding signal (z-score),[22],-0.064
same,glycan array binding signal (z-score),[23],-0.361
same,glycan array binding signal (z-score),[24],2.29
